According to the supplement of paper PMC4723716:
Where “and” joins values, the source holds several entries; their conditions need not be identical. Identical values can stand only once. ± gives the uncertainty stated by the source. Whole data set: some 9,900 compounds, median “viability index relative to DMSO control” near 1, cut for the lowest 2% near 0.85. This is one part of the list.

These compounds were tested on Plasmodium falciparum NF54 stage V gametocytes (assay: viability index relative to DMSO control (fraction); higher = less gametocyte killing). Details: 2.5 µM, library set: Broad Institute DOS, incubation time: 72 h.
Outline: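 Stage V gametocytes of P. falciparum NF54 were held in serum-free screening medium at 0.75% gametocytemia and 1.25% hematocrit, 10 µl per well of a 1,536-well plate, and exposed to compound at 2.5 µM for 72 hr at 37°C under low oxygen. A 3 µl mix of 2.5 µM MitoTracker Red CMXRos with 0.13% saponin was then added for one to two hours, after which one field per well was imaged and red particles of 20–70 µm2 were counted. The viability index equals this count divided by the plate mean from wells given solvent alone.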
`COc1cccc(S(=O)(=O)Nc2ccc3c(c2)C(=O)N(C)C[C@H](OC)[C@H](C)CN(Cc2ccccc2F)[C@@H](C)CO3)c1` was tested, and the viability index was 1.01 and 1.07.
`O=C1N[C@H](Cc2ccccc2)COCc2cnnn2CC[C@@H]1Cc1ccc(-c2ccccc2)cc1` gave a viability index of 1.07 ± 0.051.
In the case of `N#C[C@@H]1[C@@H](c2ccc(-c3cccc(F)c3)cc2)[C@H](CO)N1C(=O)CN1CCOCC1`, the viability index is reported as 1.09 ± 0.021.
Work on `CN1c2ccc(C3=CCCCC3)cc2[C@@H]2[C@@H](CCN2C(=O)C2CCOCC2)[C@H]1CO` yielded a viability index of 1.05 ± 0.041.
`C[C@@H](NC(=O)C[C@H]1CC[C@@H]2[C@H](COC[C@H](O)CN2Cc2ccc(C(F)(F)F)cc2)O1)c1ccccc1` gave a viability index of 1.07 ± 0.039.
`COc1cccc(S(=O)(=O)N2CCCCN3[C@@H](CO)[C@H](c4ccc(C#CCC(C)C)cc4)[C@@H]3C2)c1` gave a viability index of 1.01 ± 0.053.
`COc1ccc(-c2ccc([C@H]3[C@@H](CO)N4C(=O)CN(C(=O)C5CC5)C[C@@H]34)cc2)cc1` gave a viability index of 1.01 ± 0.033.
`C[C@H](CO)N1C[C@H](C)[C@H](CN(C)C(=O)Nc2ccc3c(c2)OCO3)Oc2ncc(Br)cc2C1=O` showed a viability index of 0.978 ± 0.12.
For `C[C@H]1CN([C@@H](C)CO)S(=O)(=O)c2ccc(C#CC3(O)CCCC3)cc2O[C@@H]1CN(C)C(=O)Nc1cccc(F)c1`, the viability index was 0.933 ± 0.026.
Compound `C[C@H](CO)N1C[C@H](C)[C@H](CN(C)C)Oc2ccc(NS(C)(=O)=O)cc2C1=O` has a viability index of 0.935 ± 0.021.
`O=C(C[C@H]1C=C[C@H](NC(=O)Cc2ccccn2)[C@H](CO)O1)NCCc1ccncc1` gave a viability index of 0.875 ± 0.049.
With `C/C=C/c1ccc([C@H]2[C@@H](CO)N3C(=O)CN(Cc4ccc(F)cc4)C[C@H]23)cc1` the viability index was 0.987 ± 0.057.
With `COc1ccc(C#Cc2ccc3c(c2)[C@H]2[C@H](CCN2C(=O)C2CCOCC2)[C@H](CO)N3)cc1` the viability index was 1.01 ± 0.069.
`COc1ccc([C@@H]2C/C=C/C[C@@H](C)Oc3ccccc3C(=O)N(C)[C@@H](C(C)C)C(=O)N2)c(OC)c1.COc1ccc([C@@H]2C/C=C\C[C@@H](C)Oc3ccccc3C(=O)N(C)[C@@H](C(C)C)C(=O)N2)c(OC)c1` showed a viability index of 0.968 ± 0.016.
With `N#C[C@@H]1[C@@H](c2ccc(C#Cc3ccccc3F)cc2)[C@@H](CO)N1C(=O)c1cccnc1` the viability index was 1.04 ± 0.018.
In the case of `COc1ccc(NC(=O)N2CCCCN3[C@H](CO)[C@H](c4ccc(-c5ccccc5F)cc4)[C@H]3C2)cc1`, the viability index is reported as 0.9607 ± 0.0031.
In the case of `O=C(C1CCC1)N1CC2(C1)[C@H](c1ccccc1)[C@H](CO)N2Cc1nccs1`, the viability index is reported as 0.983 ± 0.12.
For `Cc1noc(C)c1S(=O)(=O)N(C)C[C@H]1OCCCC[C@@H](C)Oc2ccc(N(C)C)cc2C(=O)N([C@@H](C)CO)C[C@@H]1C`, the viability index was 0.97 ± 0.04.
With `CO[C@@H]1CC[C@@H]2CCN(C)C(=O)CCCN(C)C(=O)c3cc(C#N)ccc3OC[C@@H]1O2` the viability index was 1.01 ± 0.066.
In the case of `C/C=C/c1ccc2c(c1)[C@H]1[C@H](CCN1C(=O)C1CCCC1)[C@@H](CO)N2`, the viability index is reported as 0.984 ± 0.038.
Compound `C/C=C/c1ccc([C@H]2[C@@H](CO)N[C@@H]2CN(CC)C(=O)CN2CCOCC2)cc1` has a viability index of 0.954 ± 0.081.
`N#C[C@H]1[C@@H](c2ccccc2C2=CCCCC2)[C@H](CO)N1C(=O)CN1CCOCC1` gave a viability index of 1.14 ± 0.083.
`COCC(=O)NC[C@@H]1[C@H](c2ccccc2)[C@@H](CO)N1C(=O)c1ccccc1` showed a viability index of 1.03 ± 0.094.
In the case of `O=C(Nc1ccc2c(c1)[C@@H]1C[C@H](CC(=O)N3CCOCC3)O[C@H](CO)[C@@H]1O2)Nc1ccccc1F`, the viability index is reported as 1.1 ± 0.058.
With `CN1C(=O)c2cc(NC(=O)c3cccc(Cl)c3)ccc2OC[C@@H]2O[C@H](CC(=O)NC3CCCCC3)CC[C@@H]21` the viability index was 0.9672 ± 0.0088.
Compound `Cc1noc(C)c1NC(=O)N1C[C@H](O)COC[C@H]2O[C@@H](CC(=O)NCC3CC3)CC[C@@H]21` has a viability index of 1.027 ± 0.0027.
`COc1ccc(NC(=O)N(C)C[C@H]2Oc3c(NC(=O)CCCCCC(=O)Nc4ccccc4N)cccc3C(=O)N([C@@H](C)CO)C[C@H]2C)cc1` showed a viability index of 0.645 ± 0.046.
In the case of `C/C=C/c1cnc2c(c1)C(=O)N([C@@H](C)CO)C[C@@H](C)[C@H](CN(C)C(=O)Nc1cccc(OC)c1)O2`, the viability index is reported as 1 ± 0.061.
Work on `C[C@H](CO)N1C[C@H](C)[C@H](CN(C)S(C)(=O)=O)Oc2ccc(NC(=O)Nc3ccc(F)cc3)cc2CC1=O` yielded a viability index of 0.907 ± 0.2.
In the case of `Cc1ccc(S(=O)(=O)Nc2ccc3c(c2)C(=O)N(C)[C@H]2CC[C@@H](CC(=O)NCCc4ccncc4)O[C@@H]2CO3)cc1`, the viability index is reported as 0.953 ± 0.054.
In the case of `C[C@H]1CN([C@@H](C)CO)C(=O)CCCn2nncc2CO[C@@H]1CN(C)C(=O)c1cc(-c2ccccc2)on1`, the viability index is reported as 1.06 ± 0.047.
For `CC1C=NC(S(=O)(=O)N2CC[C@@H]3[C@H](CO)N(C)c4ccc(C#Cc5cccnc5)cc4[C@@H]32)=N1` (some centres undefined), the viability index was 1.08 ± 0.047.
With `CCCN1C[C@@H](C)[C@@H](OC)CN(C)C(=O)c2ccc(NS(=O)(=O)c3cn(C)cn3)cc2OC[C@H]1C` the viability index was 1.03 ± 0.12.
`CCS(=O)(=O)N1C[C@@]2(C1)CN(Cc1cccc(Cl)c1)[C@@H](CO)c1c2c2ccc(OC)cc2n1C` gave a viability index of 1 ± 0.041.
`COc1ccc(NC(=O)N(C)C[C@H]2OCc3ccccc3-c3ccccc3C(=O)N([C@@H](C)CO)C[C@H]2C)c(OC)c1` showed a viability index of 0.978 ± 0.057.
`C[C@H](CO)N1C[C@H](C)[C@H](CN(C)C(=O)Nc2ccc(-c3cccs3)cc2)OCc2cnnn2CCCC1=O` showed a viability index of 0.957 ± 0.1.
`O=C(C[C@H]1CC[C@H]2[C@@H](COC[C@H](O)CN2C(=O)c2ccccc2F)O1)NCc1ccc(Cl)c(Cl)c1` showed a viability index of 1.116 ± 0.0021.
In the case of `C[C@@H]1CN([C@H](C)CO)C(=O)c2cc(-c3ccc(C#N)cc3)cnc2O[C@H]1CN(C)Cc1cccnc1`, the viability index is reported as 1.07 ± 0.037.
Compound `CCCNC(=O)N1[C@H](C#N)[C@@H](c2ccccc2-c2ccc(OC)cc2)[C@@H]1CO` has a viability index of 1.04 ± 0.11.
`CN1C(=O)c2cc(NC(=O)Cc3cccs3)ccc2OC[C@@H]2O[C@H](CC(=O)NCCc3ccncc3)CC[C@@H]21` was tested, and the viability index was 1.13 ± 0.15.
Compound `CCCC(=O)N1C[C@@]2(C1)CN(Cc1cccnc1)[C@@H](CO)c1[nH]c3cc(OC)ccc3c21` has a viability index of 0.978 ± 0.11.
`C[C@H]1CN([C@@H](C)CO)C(=O)c2cc(NC(=O)NC3CCCCC3)ccc2O[C@H]1CN(C)S(C)(=O)=O` showed a viability index of 1.02 ± 0.09.
In the case of `COc1ccc2c3c([nH]c2c1)[C@@H](CO)N(Cc1ccccc1OC)C[C@]31CN(C1)C(C)=O`, the viability index is reported as 1.058 ± 0.006.
With `O=C(NC[C@H]1[C@H](c2ccccc2)[C@@H](CO)N1C(=O)C1CCC1)NC1CCCC1` the viability index was 0.97 ± 0.012.
Compound `O=C(c1ccncc1)N1C[C@H]2[C@@H](c3ccccc31)[C@@H](CO)N2C(=O)CN1CCOCC1` has a viability index of 1.01 ± 0.21.
With `Cc1nn(C)cc1NC(=O)C[C@H]1CC[C@@H]2[C@H](COc3ccc(NC(=O)C4CCOCC4)cc3C(=O)N2C)O1` the viability index was 1.02 ± 0.069.
Compound `C[C@H]1CN([C@@H](C)CO)C(=O)c2ccccc2-c2ccccc2CO[C@@H]1CN(C)S(=O)(=O)c1cccc(C#N)c1` has a viability index of 1 ± 0.081.
`O=C(Nc1ccc2c(c1)[C@@H]1C[C@H](CC(=O)N3CCCCC3)O[C@@H](CO)[C@@H]1O2)NC1CCCCC1` was tested, and the viability index was 0.9547 ± 0.008.
`O=C(C1CC1)N1CC[C@@H]2[C@H]1c1cc(Br)ccc1N[C@@H]2CO` gave a viability index of 1.08 ± 0.031.
For `O=C(Cc1ccccc1)N1C[C@@H]2[C@H](c3ccccc31)[C@H](CO)N2S(=O)(=O)c1ccccc1`, the viability index was 1.03 ± 0.031.
`C[C@H](CO)N1C[C@H](C)[C@H](CN(C)S(=O)(=O)c2ccccc2C#N)OCc2cnnn2CCCC1=O` showed a viability index of 1.08 ± 0.066.
In the case of `Cc1noc(C)c1NC(=O)N1C[C@H](O)COC[C@H]2O[C@H](CC(=O)NCC3CC3)CC[C@@H]21`, the viability index is reported as 0.995 ± 0.042.
`C[C@H](NC(=O)C[C@H]1CC[C@H]2[C@H](COc3ccc(NC(=O)C4CCOCC4)cc3C(=O)N2C)O1)c1ccccc1` showed a viability index of 1.14 ± 0.052.
`C[C@H]1CN([C@@H](C)CO)S(=O)(=O)c2ccc(C#CCC3CCCC3)cc2O[C@@H]1CN(C)C(=O)c1cnccn1` gave a viability index of 0.99 ± 0.046.
Compound `O=C(CC1CC1)N1CC(=O)N2[C@@H](CO)[C@H](c3ccc(C#Cc4cccc(F)c4)cc3)[C@@H]2C1` has a viability index of 1.05 ± 0.058.
`C[C@@H]1CN([C@@H](C)CO)C(=O)Cc2cc(NS(=O)(=O)c3cccs3)ccc2O[C@@H]1CN(C)CC1CCCCC1` gave a viability index of 0.969 ± 0.23.
For `Cc1noc(C)c1S(=O)(=O)N(C)C[C@@H]1Oc2ccc(NC(=O)c3ccncc3)cc2CC(=O)N([C@@H](C)CO)C[C@@H]1C`, the viability index was 1.04 ± 0.026.
Work on `COCC(=O)N1[C@H](C#N)[C@H](c2ccccc2-c2cccc(C)c2)[C@@H]1CO` yielded a viability index of 1.08 ± 0.023.
`Cc1ccc(S(=O)(=O)Nc2ccc3c(c2)CC(=O)N([C@@H](C)CO)C[C@@H](C)[C@H](CN(C)S(=O)(=O)c2ccccc2)O3)cc1` gave a viability index of 0.912 ± 0.028.
In the case of `COc1cccc(C#Cc2ccc3c(c2)O[C@@H](CN(C)C(=O)CN2CCOCC2)[C@H](C)CN([C@@H](C)CO)S3(=O)=O)c1`, the viability index is reported as 1.05 ± 0.057.
`CO[C@@H]1CN(C)C(=O)c2ccc(NS(=O)(=O)CC(F)(F)F)cc2OC[C@H](C)N(Cc2nccs2)C[C@H]1C` was tested, and the viability index was 1.04 ± 0.076.
Compound `CCS(=O)(=O)NCC[C@H]1CC[C@@H](NC(=O)Nc2cc(Cl)cc(Cl)c2)[C@@H](CO)O1` has a viability index of 1.15 ± 0.059.
`N#C[C@@H]1N[C@H](CO)[C@H]1c1ccc(C2=CCCC2)cc1` showed a viability index of 1.12 ± 0.022.
With `COc1cccc(C(=O)Nc2ccc3c(c2)C(=O)N(C)[C@@H]2CC[C@H](CC(=O)NCc4ccc(F)cc4)O[C@@H]2CO3)c1` the viability index was 1.1 ± 0.11.
In the case of `CN1C(=O)c2cc(NC(=O)Cc3cccs3)ccc2OC[C@H]2O[C@@H](CC(=O)NCCCN3CCOCC3)CC[C@@H]21`, the viability index is reported as 1.17 ± 0.12.
Compound `O=C(Nc1ccc(F)cc1)N1CC(=O)N2[C@@H](CO)[C@H](c3ccc(-c4cccc(F)c4)cc3)[C@@H]2C1` has a viability index of 1 ± 0.04.
Work on `C[C@H]1CN([C@@H](C)CO)C(=O)c2cccc(N(C)C)c2O[C@H]1CN(C)Cc1ccncc1` yielded a viability index of 0.992 ± 0.12.
`Cc1noc(C)c1S(=O)(=O)Nc1ccc2c(c1)CC(=O)N([C@H](C)CO)C[C@H](C)[C@H](CN(C)Cc1ccc(Oc3ccccc3)cc1)O2` gave a viability index of 0.981 ± 0.01.
With `Cc1noc(C)c1S(=O)(=O)N(C)C[C@@H]1OCc2cnnn2CCCC(=O)N([C@@H](C)CO)C[C@@H]1C` the viability index was 1.04 ± 0.027.
